# Among all 360,000 compounds or so, about 7,500 (2.1%) were called active. The shares of active, inactive and inconclusive entries below differ from those in the screen. Calls follow the shape of the dose curve; as a rule, active = well fitted cell-killing curve with a large enough effect; inconclusive = small, poorly fitted or top-dose-only effect, or effect the other way, or another doubt; inactive = no such curve, though single readings can be large or run the other way. No potency is given beside an inconclusive call; the fits are too rough.
# Assay: qHTS for induction of synthetic lethality in tumor cells producing 2HG: qHTS for the HT-1080-IDH1KD cell line;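 as to activity, negative = toxicity: 0% = DMSO wells and -100% = cell-free medium wells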
# Settings: HT-1080 IDH1 knockdown viability, ATP luminescence, 48 h; activity, negative = toxicity: at 46.1 µM (top of the series) unless noted
# In short: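 Assay cells: HT-1080 with IDH1 knockdown, 750 per well, RPMI/5% FBS. Exposure: 48 h at 37 °C following 2 h pre-incubation. Read: CellTiter-Glo luminescence; fitted concentration-response, curve class assigned.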
# Potency is read from the fitted curve at half-maximal effect; tags tell the direction and shape of the fitted curve.
Compound,Potency,"activity, negative = toxicity"
COc1ccc2[nH]c(=O)c(CN(CC3CCCO3)C(=O)Nc3ccccc3OC)cc2c1 (stereo not given),"inconclusive [cytotoxic, single point]",–
CC(O)(c1ccc(F)c(F)c1)c1nc(-c2ccc(Cl)cc2)cs1 (stereo not given),active: 23.1 µM,–
C/C(=N\NC(=O)c1ccc(F)cc1)c1ccc(NC(=O)Cc2ccccc2)cc1,–,inconclusive: -31.9% [cytotoxic]
COCCN1CCC(CNCc2cn(-c3cc(C)ccc3C)nc2-c2ccccc2)C1 (stereo not given),"inconclusive [cytotoxic, single point]",–
Nc1sccc1C(=O)NCCN1CCOCC1,inactive,–
CCC(=O)Nc1nc(C)c(C(=O)N2CCCCC2)s1,–,inconclusive: 31.3%
Cc1ccc2[nH]c(=O)c(CN(Cc3cccs3)Cc3nnnn3Cc3ccccc3)cc2c1,"inconclusive [cytotoxic, single point]",–
CCC(=O)N1CCCC1(C)C(=O)Nc1ccc(C)c(C)c1 (stereo not given),"inconclusive [rising, single point]",–
CCN(CC)c1ccc(NC(=O)CCCOc2cccc(C)c2)cc1,–,inconclusive: -32.7% [cytotoxic]
O=c1[nH]c2ccccc2n1C1=CCCC1,inactive,–
COc1ccc(/C=C(/C(=O)c2cccs2)N2C=CC=CC2=C(C#N)C#N)cc1,"inconclusive [cytotoxic, single point]",–
O=C(N/N=C/c1ccc(F)cc1)c1c(O)c2ccccc2[nH]c1=O,inactive,–
COc1ccc(Cc2nnc(NC(=O)c3ccco3)s2)cc1OC,inactive,–
COc1ccc(OC)c(S(=O)(=O)Nc2ccc3c(c2)C(=O)OC3)c1,active: 20.6 µM,–
COc1ccc(-c2cc3ccccc3oc2=O)cc1NC(=O)c1ccc([N+](=O)[O-])o1,"inconclusive [cytotoxic, single point]",–
CS(=O)(=O)c1ccc(C(=O)Nc2ccc(-c3nc4ccccc4[nH]3)cc2)cc1,inactive,–
Cc1ccc(-c2cc(C(=O)N3CCN(c4ccccc4O)CC3)c3ccccc3n2)o1,"inconclusive [cytotoxic, single point]",–
CCOc1ccccc1NC(=O)N1CCCC(c2nc3c(nnn3Cc3ccc(C)cc3)c(=O)[nH]2)C1 (stereo not given),"inconclusive [cytotoxic, partial curve]",–
O=C(CSc1ccc(-c2ccccn2)nn1)N1CCCc2ccccc21,"inconclusive [cytotoxic, single point]",–
N#Cc1nc(COc2ccc(Cl)cc2Cl)oc1N1CCOCC1,"inconclusive [cytotoxic, single point]",–

# Source: PubChem BioAssay AID686971 (National Center for Advancing Translational Sciences (NCATS), 2013)
